Measurements as given in the supplement of paper PMC12217912.
The list shows a part of the results. Sequences were assembled here from the parent chain. Inactive controls read about 0.05.

B1: TEV protease; numbered along this chain (parent)
chain: MGESLFKGPRDYNPISSSICHLTNESDGHTTSLYGIGFGPFIITNKHLFRRNNGTLVVQSLHGVFKVKDTTTLQQHLVDGRDMIIIRMPKDFPPFPQKLKFREPQREERICLVTTNFQTKSMSSMVSDTSCTFPSGDGIFWKHWIQTKDGQCGSPLVSTRDGFIVGIHSASNFTNTNNYFTSVPKNFMELLTNQEAQQWVSGWRLNADSVLWGGHKVFMVKPEEPFQPVKEATQL

Variants of: B1
Experiment: raw area under fraction-flipped curve 0-4 h after induction (AUC4h, not background-subtracted), DNA-recorder readout of cleavage of the substrate (dimensionless); higher = more cleavage of the substrate by the protease variant
Conditions: temperature: 34 °C; time window: 0-4 h after rhamnose induction
Protocol: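 In vivo DNA recorder in E. coli TOP10(DE3) ΔrhaA at 34 °C. Each TEVp single-site mutant (parent TEVp 0) is paired with a single-site variant of the 7-mer TEVs (canonical ENLYFQ|S). The substrate sits between flexible linkers in a Bxb1-sfGFP-TEVs-SsrA fusion, so cleavage stabilises Bxb1 and speeds flipping of a recombination array, read by NGS. The value is the raw area under the fraction-flipped curve over 0-4 h after rhamnose induction (AUC4h), with ≥20 reads per time point. It is not background-subtracted; inactive controls average about 0.047.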
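Further: Bxb1 expression induced with 0.2% (w/v) L-rhamnose at OD600 near 0.5, cultures sampled hourly, flipped fraction per protease–substrate barcode pair counted by paired-end Illumina sequencing.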

Variant	area with substrate ECLYFQS	area with substrate EELYFQS	area with substrate EGLYFQS	area with substrate EHLYFQS	area with substrate EKLYFQS	area with substrate ELLYFQS	area with substrate EMLYFQS	area with substrate EQLYFQS	area with substrate ESLYFQS	area with substrate EVLYFQS	area with substrate EWLYFQS	area with substrate EDLYFQS	area with substrate EILYFQS	area with substrate ETLYFQS	area with substrate EYLYFQS	area with substrate EPLYFQS	area with substrate ERLYFQS	area with substrate EFLYFQS
MGESLFKGPRDYNPISSSICHLTNESDGHTTSLYGIGFGPFIITNKHLFRRNNGTLVVQSLHGVFKVKDTTCLQQHLVDGRDMIIIRMPKDFPPFPQKLKFREPQREERICLVTTNFQTKSMSSMVSDTSCTFPSGDGIFWKHWIQTKDGQCGSPLVSTRDGFIVGIHSASNFTNTNNYFTSVPKNFMELLTNQEAQQWVSGWRLNADSVLWGGHKVFMVKPEEPFQPVKEATQL [T72C]	0.0653	0.128	0.11	0.113	0.115	0.0668	0.102	0.112	0.117	0.101	0.0792	–	–	–	–	–	–	–
MGESLFKGPRDYNPISSSICHLTNESDGHTTSLYGIGFGPFIITNKHLFRRNNGTLVVQSLHGVFKVKDTTGLQQHLVDGRDMIIIRMPKDFPPFPQKLKFREPQREERICLVTTNFQTKSMSSMVSDTSCTFPSGDGIFWKHWIQTKDGQCGSPLVSTRDGFIVGIHSASNFTNTNNYFTSVPKNFMELLTNQEAQQWVSGWRLNADSVLWGGHKVFMVKPEEPFQPVKEATQL [T72G]	0.0822	0.106	–	0.0641	0.0676	0.0818	0.0769	0.11	0.0701	0.0925	0.0969	0.111	0.0823	–	–	–	–	–
MGESLFKGPRDYNPISSSICHLTNESDGHTTSLYGIGFGPFIITNKHLFRRNNGTLVVQSLHGVFKVKDTTTLQQHLVDTRDMIIIRMPKDFPPFPQKLKFREPQREERICLVTTNFQTKSMSSMVSDTSCTFPSGDGIFWKHWIQTKDGQCGSPLVSTRDGFIVGIHSASNFTNTNNYFTSVPKNFMELLTNQEAQQWVSGWRLNADSVLWGGHKVFMVKPEEPFQPVKEATQL [G80T]	0.109	0.119	–	0.106	0.104	–	0.156	–	0.121	–	0.0123	0.126	0.099	0.163	0.105	–	–	–
MGESLFKGPRDYNPISSSICHLTNESDGHTTSLYGIGFGPFIITNKHLFRRNNGTLVVQSLHGVFKVKDTTTLQQHLVDGRDMIIIRCPKDFPPFPQKLKFREPQREERICLVTTNFQTKSMSSMVSDTSCTFPSGDGIFWKHWIQTKDGQCGSPLVSTRDGFIVGIHSASNFTNTNNYFTSVPKNFMELLTNQEAQQWVSGWRLNADSVLWGGHKVFMVKPEEPFQPVKEATQL [M88C]	0.101	–	0.12	–	–	–	0.0964	–	0.0983	–	0.0802	–	–	–	0.0914	0.124	–	–
MGESLFKGPRDYNPISSSICHLTNESDGHTTSLYGIGFGPFIITNKHLFRRNNGTLVVQSLHGVFKVKDTTTLQQHLVDGRDMIIIRDPKDFPPFPQKLKFREPQREERICLVTTNFQTKSMSSMVSDTSCTFPSGDGIFWKHWIQTKDGQCGSPLVSTRDGFIVGIHSASNFTNTNNYFTSVPKNFMELLTNQEAQQWVSGWRLNADSVLWGGHKVFMVKPEEPFQPVKEATQL [M88D]	0.0497	–	–	–	–	0.0411	–	0.0107	0.0543	–	–	–	0.0374	–	–	–	0.0207	–
MGESLFKGPRDYNPISSSICHLTNESDGHTTSLYGIGFGPFIITNKHLFRRNNGTLVVQSLHGVFKVKDTTTLQQHLVDGRDMIIIRHPKDFPPFPQKLKFREPQREERICLVTTNFQTKSMSSMVSDTSCTFPSGDGIFWKHWIQTKDGQCGSPLVSTRDGFIVGIHSASNFTNTNNYFTSVPKNFMELLTNQEAQQWVSGWRLNADSVLWGGHKVFMVKPEEPFQPVKEATQL [M88H]	0.0591	–	0.0599	–	–	–	0.0481	0.0662	–	–	–	–	–	–	–	0.0554	–	0.0392
MGESLFKGPRDYNPISSSICHLTNESDGHTTSLYGIGFGPFIITNKHLFRRNNGTLVVQSLHGVFKVKDTTTLQQHLVDGRDMIIIRQPKDFPPFPQKLKFREPQREERICLVTTNFQTKSMSSMVSDTSCTFPSGDGIFWKHWIQTKDGQCGSPLVSTRDGFIVGIHSASNFTNTNNYFTSVPKNFMELLTNQEAQQWVSGWRLNADSVLWGGHKVFMVKPEEPFQPVKEATQL [M88Q]	0.156	–	0.0867	–	0.107	–	–	0.0926	0.109	0.138	–	0.142	0.122	0.151	0.0722	–	–	–
MGESLFKGPRDYNPISSSICHLTNESDGHTTSLYGIGFGPFIITNKHLFRRNNGTLVVQSLHGVFKVKDTTTLQQHLVDGRDMIIIRMPKDFPPFFQKLKFREPQREERICLVTTNFQTKSMSSMVSDTSCTFPSGDGIFWKHWIQTKDGQCGSPLVSTRDGFIVGIHSASNFTNTNNYFTSVPKNFMELLTNQEAQQWVSGWRLNADSVLWGGHKVFMVKPEEPFQPVKEATQL [P96F]	0.11	0.141	–	–	0.0563	0.0609	0.111	0.106	0.0978	–	0.0795	–	–	–	–	–	0.103	0.0987
MGESLFKGPRDYNPISSSICHLTNESDGHTTSLYGIGFGPFIITNKHLFRRNNGTLVVQSLHGVFKVKDTTTLQQHLVDGRDMIIIRMPKDFPPFKQKLKFREPQREERICLVTTNFQTKSMSSMVSDTSCTFPSGDGIFWKHWIQTKDGQCGSPLVSTRDGFIVGIHSASNFTNTNNYFTSVPKNFMELLTNQEAQQWVSGWRLNADSVLWGGHKVFMVKPEEPFQPVKEATQL [P96K]	0.0608	0.143	–	–	0.0791	0.0915	–	0.118	–	0.107	0.0968	0.107	0.0911	0.124	–	0.0971	0.0995	–
MGESLFKGPRDYNPISSSICHLTNESDGHTTSLYGIGFGPFIITNKHLFRRNNGTLVVQSLHGVFKVKDTTTLQQHLVDGRDMIIIRMPKDFPPFLQKLKFREPQREERICLVTTNFQTKSMSSMVSDTSCTFPSGDGIFWKHWIQTKDGQCGSPLVSTRDGFIVGIHSASNFTNTNNYFTSVPKNFMELLTNQEAQQWVSGWRLNADSVLWGGHKVFMVKPEEPFQPVKEATQL [P96L]	0.0957	0.0756	0.113	–	–	–	–	–	0.112	0.099	–	–	0.0985	–	–	–	–	–
